Laboratory results from ChEMBL document CHEMBL4888484, “Replenishing the malaria drug discovery pipeline: Screening and hit evaluation of the MMV Hit Generation Library 1 (HGL1) against asexual blood stage Plasmodium falciparum ,using a nano luciferase reporter read-out” (2022).
Out of some 150,000 compounds screened, about 540 (0.36%) showed an effect of 50% or more. Some of the results follow.

Each compound was assayed on Plasmodium falciparum (assay: Primary screen in NF54 nanoGlo assay, in single point, at 2uM, 72h; a lower Z score goes with more inhibition). Conditions: timepoint 72 hour.
Format: functional, Erythrocyte
In the case of `Nc1cccc(C2CC(=O)NC(=O)C2)c1`, the “% Inhibition” value was 2% and the Z score was -0.38. In the case of `O=C(Nc1cnc2ccnn2c1)c1ccc(F)cc1`, the “% Inhibition” value was 11% and the Z score was -1.44. In the case of `CN(Cc1ccc(-n2cccn2)cc1)C(=O)C[C@]1(c2ccccc2)CC(=O)N(Cc2cccs2)C1=O`, the “% Inhibition” value was 19% and the Z score was -2.41. For `CC(CC(=O)N1CCCCCC1)NC1C2CCOC2C1(C)C` (stereo not drawn), the “% Inhibition” value was -11% and the Z score was 1.13. With `CN(CC(=O)NCCn1ccnn1)Cc1ccccn1` the “% Inhibition” value was -7% and the Z score was 1.23. With `Cn1nc(C(F)F)cc1C(=O)Nc1cnn2c1NCCC2` the “% Inhibition” value was -2% and the Z score was 0.28. With `Cc1cc(N2CCOCC2)ccc1NC(=O)c1cccnc1Nc1ccccc1F` the “% Inhibition” value was 1% and the Z score was -0.1. For `Cc1nnc2sc(-c3ccc(NC(=O)COc4ccccc4Cl)cc3)nn12`, the “% Inhibition” value was -49% and the Z score was 5.74. In the case of `O=S(=O)(Cc1ccco1)[C@H]1CCN(S(=O)(=O)C2CC2)C1`, the “% Inhibition” value was 6% and the Z score was -0.99. With `CCCN(CCO)C(=O)c1ccccc1F` the “% Inhibition” value was -17% and the Z score was 1.97. With `COc1ccc(F)c(CN2CCC[C@@](O)(CN3CCC(F)(F)CC3)C2=O)c1` the “% Inhibition” value was 2% and the Z score was -0.3. In the case of `CC(C)(C)c1ccc(C(=O)Nc2cc(NC(=O)c3ccc(C(C)(C)C)cc3)cc(-c3nc4ccccc4o3)c2)cc1`, the “% Inhibition” value was 10% and the Z score was -1.56. For `O=C(CCCn1cncn1)N1CCC(c2nnc3n2CCCCC3)CC1`, the “% Inhibition” value was -19% and the Z score was 2.49. `CCS(=O)(=O)N1CCN(c2nnc(C3CCCC3)n2C)CC1` was tested, and the “% Inhibition” value was 0% and the Z score was 0.02. `Cc1nc(-c2cccc(CN(C)[C@H](c3ccccn3)C3CC3)c2)[nH]c(=O)c1F` was tested, and the “% Inhibition” value was -14% and the Z score was 1.54. With `Cc1cc(CN(C)C(=O)C[C@]2(c3ccccc3)CC(=O)N(Cc3ccc4c(c3)OCO4)C2=O)on1` the “% Inhibition” value was 7% and the Z score was -0.98. For `CC(=O)N(CC(F)(F)F)c1ccccc1`, the “% Inhibition” value was 0% and the Z score was -0.01. In the case of `CN(C)CCN(C)c1ccc(Br)cc1NCc1cncn1C`, the “% Inhibition” value was 35% and the Z score was -3.63. With `Cc1ccc(-c2nc(C#N)c(S(=O)(=O)N3CCN(c4cccc(Cl)c4)CC3)o2)cc1` the “% Inhibition” value was 5% and the Z score was -0.64. For `COCC(=O)N1CCN(C(=O)c2cccc(F)c2)C[C@@H]1C(=O)N[C@@H](CC1CCCCC1)C(N)=O`, the “% Inhibition” value was -5% and the Z score was 0.74. In the case of `CC(=O)N(CCN1CCCCC1)[C@H]1CCCN(S(=O)(=O)c2ccc(C(C)C)cc2)C1`, the “% Inhibition” value was -10% and the Z score was 1.31. In the case of `CC(C)(C#N)C(=O)Nc1ccc(S(C)(=O)=O)c(F)c1`, the “% Inhibition” value was -13% and the Z score was 1.74. With `COc1cccc2sc(OC3CN(C(=O)Nc4ccccc4F)C3)nc12` the “% Inhibition” value was -18% and the Z score was 2.02. `C#CC(C)(C)N(C)Cc1ccc(C(=O)OC)c(F)c1` was tested, and the “% Inhibition” value was -14% and the Z score was 2.58. For `Cc1nnc(CNc2ccc(Oc3ccc(C(F)(F)F)cc3)c(C#N)c2)s1`, the “% Inhibition” value was 1% and the Z score was -0.13. In the case of `Cc1ccc(F)c(CN2CCc3nc(N4CCCCC4)nc(Oc4ccc(F)c(F)c4)c3C2)c1`, the “% Inhibition” value was 9% and the Z score was -1.21. `COc1cc(OC)nc(C(=O)N2CC[C@H](Oc3ccc(C)cn3)C2)n1` was tested, and the “% Inhibition” value was -3% and the Z score was 0.49. In the case of `CCN1C/C(=N\S(=O)(=O)c2ccc(C)cc2)N(CC)C1=O`, the “% Inhibition” value was 10% and the Z score was -1.97. In the case of `CNc1cc(C(=O)NC[C@@H](CO)Cc2cccs2)ccn1`, the “% Inhibition” value was -11% and the Z score was 1.15. With `c1ccc(Nc2nc3nonc3nc2NC2CCCCC2)cc1` the “% Inhibition” value was -2% and the Z score was 0.2. `Cc1ccc(-c2nc(N)nc3[nH]ncc23)c(-n2cccn2)c1` was tested, and the “% Inhibition” value was -9% and the Z score was 1.8. For `CCc1nnc(CN2CCN(C(C)(C)C)c3ccccc32)o1`, the “% Inhibition” value was -18% and the Z score was 2.47. With `O=C(NC[C@H]1CS(=O)(=O)c2ccccc2O1)c1cscc1C(F)(F)F` the “% Inhibition” value was 0% and the Z score was -0.07. For `CC(C)(C)COC(=O)NC[C@H]1CCN(C(=O)c2ccc[nH]2)C[C@@H]1O`, the “% Inhibition” value was -8% and the Z score was 1.44. `CC(C)(NCCCNS(C)(=O)=O)c1ccc(F)cc1Cl` was tested, and the “% Inhibition” value was 7% and the Z score was -0.95. With `CN1CCc2[nH]cnc2C12CCN(C(=O)c1ccc3[nH]nnc3c1)CC2` the “% Inhibition” value was -9% and the Z score was 1.34. For `O=C1NC[C@@H]2CCC[C@@H](CCOc3ccccc3C(=O)N3CCNC[C@@H]13)O2`, the “% Inhibition” value was -1% and the Z score was 0.15. In the case of `O=C(O)C1(n2cnc3ccccc32)CCN(c2ccncc2)CC1`, the “% Inhibition” value was 15% and the Z score was -1.91. With `CCc1nc(C(=O)NC2CCN(c3[nH]cnc4ncnc3-4)CC2)c[nH]1` the “% Inhibition” value was -1% and the Z score was 0.15. For `Cc1cc(C)c(C(=O)N2CC(S(=O)(=O)Cc3ccco3)C2)c(C)c1`, the “% Inhibition” value was -15% and the Z score was 1.92. `CN(CCCNc1ccccc1)C(=O)c1ccc(Cl)cn1` was tested, and the “% Inhibition” value was 3% and the Z score was -0.41. In the case of `CCC(C)c1csc(NC(=O)NC(C)c2cnn(C)c2)n1` (stereo not drawn), the “% Inhibition” value was -1% and the Z score was 0.21. With `COc1cc(C(=O)Nc2ccc(OCc3ccccc3)cc2)c2[nH]ncc2c1` the “% Inhibition” value was -4% and the Z score was 0.55. With `CC(C)Cc1nc(CN(C)c2nc(N(C)C)nc3c2CCNC3)no1` the “% Inhibition” value was -7% and the Z score was 1.06. `CC(C)C(=O)Nc1cc(C(=O)OC[C@H]2CCCCO2)c(F)cc1F` was tested, and the “% Inhibition” value was 29% and the Z score was -3.92. In the case of `CC(=O)c1cccc(CN(CCN2CCCCC2)C[C@H]2CCCN(C3CCCC3)C2)c1`, the “% Inhibition” value was -6% and the Z score was 1.1. In the case of `COC(=O)C1(N(C)Cc2nnsc2Cl)CCCCC1`, the “% Inhibition” value was -9% and the Z score was 1.38. With `Cc1cc(C)n(-c2ccnc(N3CCN(c4ccc(F)cc4)CC3)n2)n1` the “% Inhibition” value was -10% and the Z score was 1.08. `CC12CC(c3ccccc3O1)C(C(N)=O)C(=O)N2CCCn1ccc2ccc(Cl)cc21` (stereo not drawn) was tested, and the “% Inhibition” value was -13% and the Z score was 2.09. For `CCCn1cc(NC2CCC3(CC2)OCCO3)cn1`, the “% Inhibition” value was -9% and the Z score was 1.21. For `Cc1n[nH]c([C@H]2CCN(Cc3ccc(F)cc3F)C[C@H]2NC(=O)C2CCOCC2)n1`, the “% Inhibition” value was -9% and the Z score was 1.19. For `Cc1noc(C)c1CC(=O)N1C[C@H](C)NC(=O)c2ccccc21`, the “% Inhibition” value was -14% and the Z score was 1.38. `O=C(Cn1ccc(C(F)(F)F)n1)N1CCCC1` was tested, and the “% Inhibition” value was -15% and the Z score was 2.9. For `CC1(C)C[C@@H](c2nccn2CCc2c[nH]c(=O)[nH]c2=O)CCO1`, the “% Inhibition” value was 16% and the Z score was -2.85. In the case of `O=C(CN1CCCCCC1=O)N1CCCC1`, the “% Inhibition” value was -1% and the Z score was 0.12. In the case of `O=C(Nc1ccccc1OCc1cccc(Cl)c1)[C@H]1CCNC1`, the “% Inhibition” value was 2% and the Z score was -0.25. In the case of `CC[C@@H](CO)NC(=O)Nc1ccc(Cl)cc1`, the “% Inhibition” value was 35% and the Z score was -0.64. With `Cn1nc(C(=O)Nc2cc(-c3ccccc3)ns2)ccc1=O` the “% Inhibition” value was 12% and the Z score was -2.32. In the case of `CC(=O)N[C@H](CC1CCC1)C(=O)N1CCN(C2CCC2)CC1`, the “% Inhibition” value was -4% and the Z score was 0.67. In the case of `O=C1NCc2ccc(NCC3CC4CCC3O4)cc21` (stereo not drawn), the “% Inhibition” value was -12% and the Z score was 1.25. For `Cc1nc(N2CCOC[C@](O)(CN3CCCC3)C2)c2ccsc2n1`, the “% Inhibition” value was -1% and the Z score was 0.11. With `N#Cc1ccc(CN2C[C@@H]3C[C@H]2C(=O)N2CCO[C@H](CN(Cc4ccc(F)c(F)c4)C[C@H]4O[C@@H](CC(=O)N3)[C@H](O)[C@@H]4O)C2)cc1` the “% Inhibition” value was 14% and the Z score was -1.63. For `CCc1csc(NCc2nocc2C)n1`, the “% Inhibition” value was -16% and the Z score was 3.06. With `COC[C@H]1CCCN1C(=O)CCCc1cn[nH]c1` the “% Inhibition” value was 3% and the Z score was -0.41. With `CCOc1cccc2c1OC[C@@H](C(=O)N1CCCS1(=O)=O)C2` the “% Inhibition” value was -7% and the Z score was 1.2. In the case of `COc1ccnc(CNC(=O)[C@H]2C[C@@H]2c2ccccc2)n1`, the “% Inhibition” value was 3% and the Z score was -0.46. For `Cn1cc(-c2ccccc2)c(NC(=O)NCCC(=O)Nc2ccccc2)n1`, the “% Inhibition” value was -15% and the Z score was 1.48. For `Cc1cc2c(cc1C)C(NC1CCC(=O)NC1)CCCO2` (stereo not drawn), the “% Inhibition” value was -9% and the Z score was 0.83. With `Fc1ccc(-c2cc(-c3ccccc3)c3c(n2)-c2cc(F)ccc2OC3)cc1` the “% Inhibition” value was -6% and the Z score was 0.7. For `Cn1c(=O)c2c(nc3n2CC(=O)N3c2ccccc2F)n(C)c1=O`, the “% Inhibition” value was -23% and the Z score was 2.43. `CC1(CO)CN(C(=O)COc2ccc(OCc3ccccc3)cc2)C1` was tested, and the “% Inhibition” value was -1% and the Z score was 0.13. For `Cc1cc(C(=O)N(C)C[C@H]2Cc3ccccc3CO2)c(C)o1`, the “% Inhibition” value was 2% and the Z score was -0.27. In the case of `O=C(NC(CC1CCOCC1)c1ccccc1)N1CCC[C@H]1CO` (stereo partly drawn), the “% Inhibition” value was -4% and the Z score was 0.44. In the case of `COc1ncc(NC(=O)c2c(F)cccc2Cl)cn1`, the “% Inhibition” value was 5% and the Z score was -0.6. In the case of `c1cc(CNC2CCCCCCC2)on1`, the “% Inhibition” value was -12% and the Z score was 1.4. For `CC(C)c1nc(Cn2ccnc2-c2cccc3cnccc23)cs1`, the “% Inhibition” value was -6% and the Z score was 0.87. `Cc1nnc(CS(=O)(=O)[C@@H](C)c2ccccc2Cl)n1C1CC1` was tested, and the “% Inhibition” value was -1% and the Z score was 0.21. With `COc1ccc2c(c1)[C@@H](NCc1ccccc1)CCO2` the “% Inhibition” value was -5% and the Z score was 0.65. For `c1cnc(NCc2cnc(N3CCCC3)s2)cn1`, the “% Inhibition” value was -3% and the Z score was 0.38. For `OCC[C@H]1CN(Cc2ccc3c(c2)OCCO3)CCN1Cc1cccs1`, the “% Inhibition” value was -9% and the Z score was 1.63. For `c1ccc2c(c1)OC[C@@H](c1noc(C3(n4cnnn4)CC3)n1)O2`, the “% Inhibition” value was -7% and the Z score was 1.39. With `Cc1c(C2CCN(S(=O)(=O)c3ccc(C(C)C)cc3)CC2)c2ccccc2n1Cc1ccc(F)cc1` the “% Inhibition” value was -7% and the Z score was 0.95. For `COC(=O)C1CCN(Cc2c(C(=O)N3C[C@@H](C)O[C@@H](C)C3)nc3ccc(Cl)cn23)CC1`, the “% Inhibition” value was 9% and the Z score was -1.26. In the case of `N#Cc1cc(F)ccc1NCCCc1nc(=O)[nH][nH]1`, the “% Inhibition” value was -7% and the Z score was 1.
